Laboratory results reported in the supplement of paper PMC3334620.
Over roughly 33,000 sequences, “E-score (-0.5 to 0.5)” has its median near -0.011; the highest 2% begin near 0.28. This is one part of the list.

These sequences were tested against T1, Gcr1 (UniProt P07261) (assay: PBM E-score (8-mer binding enrichment) (E-score (-0.5 to 0.5)); higher = stronger / more preferred TF binding; most listed sequences are background and not binding sites). Details: protein concentration: 100 nM; construct: GST-full length.
T1 sequence: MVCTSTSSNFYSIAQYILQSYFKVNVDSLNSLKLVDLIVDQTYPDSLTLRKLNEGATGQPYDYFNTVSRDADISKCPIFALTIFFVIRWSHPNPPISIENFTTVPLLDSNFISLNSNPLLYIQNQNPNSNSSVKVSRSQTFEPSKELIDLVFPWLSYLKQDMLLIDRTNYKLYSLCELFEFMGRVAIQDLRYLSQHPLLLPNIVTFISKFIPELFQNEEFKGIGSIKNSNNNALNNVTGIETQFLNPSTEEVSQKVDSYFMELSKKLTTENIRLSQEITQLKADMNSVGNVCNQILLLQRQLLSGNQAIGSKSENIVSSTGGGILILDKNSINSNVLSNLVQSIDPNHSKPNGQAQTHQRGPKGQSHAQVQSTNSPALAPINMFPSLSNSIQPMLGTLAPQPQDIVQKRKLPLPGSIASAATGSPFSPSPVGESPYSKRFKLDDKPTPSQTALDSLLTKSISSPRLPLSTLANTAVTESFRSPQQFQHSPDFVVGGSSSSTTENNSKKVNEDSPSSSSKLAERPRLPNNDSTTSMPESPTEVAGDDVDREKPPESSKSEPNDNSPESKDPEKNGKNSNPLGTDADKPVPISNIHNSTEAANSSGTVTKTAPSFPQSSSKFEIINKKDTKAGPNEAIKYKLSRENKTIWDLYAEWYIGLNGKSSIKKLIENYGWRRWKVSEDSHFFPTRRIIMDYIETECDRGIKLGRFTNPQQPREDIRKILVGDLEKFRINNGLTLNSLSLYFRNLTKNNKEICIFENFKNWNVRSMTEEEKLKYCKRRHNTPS
Procedure, shortened: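 Each ungapped eight-base word and its reverse complement, pooled, received an E-score from the Universal PBM Analysis Suite. Underlying scans, normalised with masliner, recorded fluorescent anti-GST bound to GST-tagged yeast transcription factors. These were applied at about 100-200 nM to universal all-10-mer Agilent arrays double-stranded by primer extension.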

| Sequence | PBM E-score |
| --- | --- |
| ATAGCCGC | 0.0383 |
| CGTCGACC | -0.228 |
| ACGGCGCG | -0.0701 |
| CACCGCAG | -0.0982 |
| GTAGCAAC | 0.0656 |
| CACGTTGG | -0.0407 |
| CGTTTAGA | 0.12 |
| GAGCGCCA | -0.0321 |
| CTATGTCC | -0.0336 |
| CCTGGTTC | 0.0962 |
| AAGGTTCT | 0.211 |
| ACGATCTC | -0.132 |
| AAGAAAAC | -0.0707 |
| ATATCGAA | 0.153 |
| ATACGGAC | -0.0849 |
| AGTCTCTG | -0.22 |
| ATCAAGTC | -0.133 |
| ACACACCG | -0.153 |
| AGAAAATC | 0.156 |
| ACGATTTC | -0.0826 |
| AGATCGAT | -0.137 |
| CAGCGGGA | 0.0491 |

| Sequence | PBM E-score |
| --- | --- |
| CGATTTTA | 0.102 |
| CCGTGAAC | -0.00534 |
| CGCGAATA | 0.192 |
| CAGACGTC | -0.105 |
| CAGAAATC | -0.032 |
| ACCCACAG | 0.00387 |
| GTATACTA | -0.0859 |
| GCAGGTAC | -0.00141 |
| ACCATGGG | -0.0124 |
| CCCATGGG | 0.0667 |
| AGGAAAAA | -0.283 |
| GCCGCAAA | -0.0534 |
| TATTAGAA | 0.163 |
| ACCCTAAA | 0.0664 |
| CACCAAGG | 0.0974 |
| GAGAAAAA | -0.0121 |
| TCCGGTAA | 0.168 |
| ATTCGATA | 0.234 |
| GGAAAAAA | -0.0262 |
| CAAGACGC | 0.238 |
| AAAGCGAT | 0.142 |
| CGCTACAG | 0.108 |

| Sequence | PBM E-score |
| --- | --- |
| ATGCTACC | 0.0625 |
| AGAAGCAT | 0.0749 |
| CGTAATGC | 0.0461 |
| AATACCTA | 0.0884 |
| TCAAGAAA | 0.132 |
| CCTTCACA | -0.248 |
| CACGGCGA | -0.0331 |
| CCAAGGGA | -0.0899 |
| CCGCGTAC | -0.0772 |
| AACTTCTG | 0.163 |
| ACCGACGC | -0.0878 |
| AATCGAGC | 0.0387 |
| CTGACGGA | -0.229 |
| ACACCAAG | -0.023 |
| AGGTGACC | 0.153 |
| AGCAGCAT | -0.00516 |
| CGAGCTGA | -0.0297 |
| GGTGTTCA | 0.106 |
| CCCACACC | 0.108 |
| GATGTATA | 0.0854 |
| ACTACTCC | 0.0438 |
| TCCTGGAA | 0.162 |

| Sequence | PBM E-score |
| --- | --- |
| AAGTTGCT | 0.194 |
| AGACTAGC | -0.139 |
| CTAGCGTA | -0.215 |
| ACTTTTGC | -0.15 |
| GTACCTAC | -0.0043 |
| ACCTGTTA | 0.0289 |
| CTCACCGA | -0.189 |
| CGACAGCG | -0.122 |
| TACGAATA | -0.0693 |
| ACACCCAA | -0.0445 |
| AGTATCGA | 0.0136 |
| GGACACTA | 0.0929 |
| AGGCATTG | 0.0194 |
| ACCCGCCG | -0.0692 |
| GCTAAGGA | 0.222 |
| CGCACTGA | -0.0511 |
| ACAGGACA | -0.101 |
| GAAGCTGC | 0.406 |
| CCAACTTA | 0.147 |
| ATTTCAGG | 0.254 |
